Measurements published in patent publication US7592316B2, “Peptides as NS3-serine protease inhibitors of hepatitis C virus” (Schering Corporation, priority 2000, dated 2009).
*1 amine or outer side, *2 acyl side, *3 side chain or, on linkers, in order; H or OH if unused. Where a SMILES comes first, the peptide text is derived from it. [ ]: non-standard residue; d: D form. The star is where a group is joined. ξ: configuration not given here. Pro(3R,4S-CMe2) = CC1(C)[C@@H]2[C@@H](C(=O)O)NC[C@@H]21; ξ(3-Amino-2-oxopentanoyl) = CCC(N[*:1])C(=O)C(=O)[*:2]; Pro(3S,4R-methano) = O=C(O)[C@H]1NC[C@@H]2C[C@@H]21; Isobutoxycarbonyl(1S-Me) = CC(C)[C@H](C)OC(=O)*; Pro(4,4-S(CH2)3S) = O=C(O)[C@@H]1CC2(CN1)SCCCS2; Benzoyl(3-COOH) = O=C(O)c1cccc(C(=O)*)c1; Benzoyl(2-COOH) = O=C(O)c1ccccc1C(=O)*; Pro(4,4-Me2) = CC1(C)CN[C@H](C(=O)O)C1; Pro(4S-Me) = C[C@@H]1CN[C@H](C(=O)O)C1; X19 = CCC[C@@H](N[*:1])C(=O)C(=O)[*:2]; X25 = O=C(O)c1c(F)c(F)c(F)c(F)c1C(=O)*; X12 = CCC[C@H](N[*:1])C(=O)C(=O)[*:2]; Isobutyloxycarbonyl = CC(C)COC(=O)*; X4 = CCCCC(N[*:1])C(=O)C(=O)[*:2]; Hyp = O=C(O)[C@@H]1C[C@@H](O)CN1; X2 = CCCC(N[*:1])C(=O)C(=O)[*:2]; Chg = N[C@H](C(=O)O)C1CCCCC1; Phg = N[C@H](C(=O)O)c1ccccc1; Tle = CC(C)(C)[C@H](N)C(=O)O; X20 = CC(C)[C@@H](C)OC(=O)*; X39 = O=C(O)C1(C(=O)*)CC1; ξChg = NC(C(=O)O)C1CCCCC1; ξPhg = NC(C(=O)O)c1ccccc1; Orn = NCCC[C@H](N)C(=O)O; Boc = CC(C)(C)OC(=O)*; X21 = CC(C)S(=O)(=O)*; ξhSer = NC(CCO)C(=O)O; ξV = CC(C)C(N)C(=O)O; Bn = c1ccc(C*)cc1; tBu = CC(C)(C)*

What follows are compounds tested against HCV NS3/NS4A protease (strain 1a) (Hepatitis C virus genotype 1a, UniProt P27958) (assay: biochemical). Conditions: Compounds prepared by Solid Phase Synthesis, Table 3; read-out: Ki* CLASS.

Row | SMILES | Ki
1 | CCCC(NC(=O)[C@@H]1C[C@@H](OCc2ccccc2)CN1C(=O)C(NC(=O)OCC(C)C)C(C)C)C(=O)C(=O)NCC(=O)NC(CCO)C(N)=O (stereo partly shown) (Isobutyloxycarbonyl-[ξV][Hyp](Bn)[X2]G[ξhSer]-NH2) | > 1000 nM
2 | CCCC(NC(=O)[C@@H]1C[C@@H](OC(C)(C)C)CN1C(=O)[C@H](COC(C)(C)C)NC(=O)OC(C)(C)C)C(=O)C(=O)NCC(=O)N[C@H](C(N)=O)c1ccccc1 (stereo partly shown) (Boc-S(tBu)[Hyp](tBu)[X2]G[Phg]-NH2) | > 1000 nM
3 | CCCC(NC(=O)[C@@H]1C[C@@H](OC(C)(C)C)CN1C(=O)C(NC(=O)OCC(C)C)C1CCCCC1)C(=O)C(=O)NCC(=O)NC(C(N)=O)c1ccccc1 (stereo partly shown) (Isobutyloxycarbonyl-[ξChg][Hyp](tBu)[X2]G[ξPhg]-NH2) | 1 to 100 nM
4 | CCC(NC(=O)[C@@H]1C[C@@H](OC(C)(C)C)CN1C(=O)[C@@H](NC(=O)c1c(F)c(F)c(F)c(F)c1C(=O)O)C1CCCCC1)C(=O)C(=O)NCC(=O)N[C@H](C(N)=O)c1ccccc1 (stereo partly shown) (X25-[Chg][Hyp](tBu)[ξ(3-Amino-2-oxopentanoyl)]G[Phg]-NH2) | 1 to 100 nM
5 | CCC(NC(=O)[C@@H]1C[C@@H](OC(C)(C)C)CN1C(=O)[C@@H](NC(=O)c1cccc(C(=O)O)c1)C1CCCCC1)C(=O)C(=O)NCC(=O)N[C@H](C(N)=O)c1ccccc1 (stereo partly shown) ({Benzoyl(3-COOH)}-[Chg][Hyp](tBu)[ξ(3-Amino-2-oxopentanoyl)]G[Phg]-NH2) | > 1000 nM
6 | CCCCC(NC(=O)[C@@H]1C[C@@H](OCc2ccccc2)CN1C(=O)C(NC(=O)c1ccccc1C(=O)O)C1CCCCC1)C(=O)C(=O)NCC(=O)NC(C(N)=O)c1ccccc1 (stereo partly shown) ({Benzoyl(2-COOH)}-[ξChg][Hyp](Bn)[X4]G[ξPhg]-NH2) | 101 to 1000 nM
7 | CCCC(NC(=O)[C@@H]1C[C@@H](OCc2ccccc2)CN1C(=O)[C@H](CCCNC(=O)C1(C(=O)O)CC1)NC(=O)OCC(C)C)C(=O)C(=O)NCC(=O)N[C@H](C(N)=O)c1ccccc1 (stereo partly shown) (Isobutyloxycarbonyl-[Orn](X39)[Hyp](Bn)[X2]G[Phg]-NH2) | > 1000 nM

Same assay, conditions: HCV protease continuous assay results, Table 1; read-out: Ki* Range

Row | Ki | SMILES
8 | > 1000 nM | CC(C)CCC(NC(=O)[C@@H]1C[C@@H](OC(C)(C)C)CN1C(=O)[C@@H](NC(=O)OCC(C)C)C(C)(C)C)C(=O)C(=O)NCC(=O)O (stereo partly shown) [Example 250]
9 | > 1000 nM | C=CCNC(=O)C(=O)[C@H](CCC)NC(=O)[C@@H]1CCCN1C(=O)[C@@H](NC(=O)CCC[C@H](N)C(=O)O)C(C)C [Example 42]

Row | SMILES | Ki
10 | CCCC(NC(=O)[C@@H]1CC2(CN1C(=O)C(NC(=O)OCC(C)C)C1CCCCC1)SCCCS2)C(=O)C(=O)NCC(=O)NC(C(=O)NC)c1ccccc1 (stereo partly shown) [Example 111] (Isobutyloxycarbonyl-[ξChg][Pro(4,4-S(CH2)3S)][X2]G[ξPhg]-NHMe) | 1 to 100 nM

Same assay, conditions: Table 4; HCV NS3/NS4A protease, spectrophotometric assay, 30° C., pH 6.5; read-out: Ki* Range

Row | SMILES | Ki
11 | CCC[C@H](NC(=O)[C@@H]1C[C@H](C)CN1C(=O)[C@@H](NC(=O)OCC(C)C)C(C)(C)C)C(=O)C(=O)NCC(=O)N[C@H](C(=O)N(C)C)c1ccccc1 (Isobutyloxycarbonyl-[Tle][Pro(4S-Me)][X12]G[Phg]-NMe2) | 1 to 100 nM
12 | CCC[C@H](NC(=O)[C@@H]1[C@H]2C[C@H]2CN1C(=O)[C@@H](NC(=O)O[C@H](C)C(C)C)C(C)(C)C)C(=O)C(=O)NCC(=O)N[C@H](C(=O)N(C)C)c1ccccc1 (X20-[Tle][Pro(3S,4R-methano)][X12]G[Phg]-NMe2) | 1 to 100 nM
13 | CCCC(NC(=O)C1C[C@@H](NS(=O)(=O)c2ccc3c(c2)CCO3)CN1C(=O)[C@@H](NC(=O)OCC(C)C)C1CCCCC1)C(=O)C(=O)NCC(=O)N[C@H](C(N)=O)c1ccccc1 (stereo partly shown) | 101 to 1000 nM

Same assay, conditions: Table 5; HCV NS3/NS4A protease, 30° C., pH 6.5; read-out: Ki* Range

Row | Ki | SMILES
14 | 101 to 1000 nM | C=CCNC(=O)C(=O)C(CCC)NC(=O)[C@@H]1[C@H]2[C@@H](CN1C(=O)[C@@H](NC(=O)OC13CCCC(CC4CC41)C3)C1Cc3ccccc3C1)C2(C)C (stereo partly shown)
15 | 101 to 1000 nM | C=CCCC(NC(=O)[C@@H]1[C@@H]2[C@H](CN1C(=O)[C@@H](NC(=O)OC(C)(C)C)C1CCCCC1)C2(C)C)C(=O)C(=O)NCCC(=O)OC(C)(C)Cc1ccccc1 (stereo partly shown)
16 | 1 to 100 nM | C=CCCNC(=O)C(=O)C(CCC=C)NC(=O)[C@@H]1[C@H]2[C@@H](CN1C(=O)C(NC(=O)NC1CC3CCC1C3)C1CCCCC1)C2(Cl)Cl (stereo partly shown)
17 | > 1000 nM | CCCC(NC(=O)[C@@H]1C[C@@H](OC(C)(C)C)CN1C(=O)[C@@H](NC(=O)OC(C)(C)C)C(C)(C)C)C(=O)C(=O)NCCC(=O)OC(C)(C)C (stereo partly shown)

Same assay, conditions: Table 5; HCV NS3/NS4A protease, spectrophotometric assay, 30° C., pH 6.5; read-out: Ki* Range

Row | SMILES | Ki
18 | CCC[C@@H](NC(=O)[C@@H]1[C@@H]2[C@H](CN1C(=O)[C@@H](NS(=O)(=O)C(C)C)C(C)(C)C)C2(C)C)C(=O)C(=O)NCC(=O)N[C@H](C(=O)N(C)C)c1ccccc1 (X21-[Tle][Pro(3R,4S-CMe2)][X19]G[Phg]-NMe2) | 1 to 100 nM
19 | C=CCNC(=O)C(=O)C(CC1CCC1)NC(=O)[C@@H]1[C@H]2[C@@H](CN1C(=O)[C@@H](NC(=O)OC(C)(C)C)C(C)(C)C)C2(C)C (stereo partly shown) | > 1000 nM
20 | CC1CCC(OC(=O)N[C@H](C(=O)N2C[C@H]3[C@@H]([C@H]2C(=O)NC(CC2CC2)C(=O)C(N)=O)C3(C)C)C2CCCCC2)C1 (stereo partly shown) | 1 to 100 nM
21 | CCCC(NC(=O)[C@@H]1C2C(CN1C(=O)[C@@H](NC(=O)OC(C)(C)C)C1Cc3ccccc3C1)C2(C)C)C(=O)C(N)=O (stereo partly shown) | 1 to 100 nM
22 | CCCCC(NC(=O)[C@@H]1CC(C)(C)CN1C(=O)[C@@H](NC(=O)O[C@@H](C)C(C)C)C(C)(C)C)C(=O)C(=O)NCC(=O)N[C@H](C(=O)N(C)C)c1ccccc1 (stereo partly drawn) ({Isobutoxycarbonyl(1S-Me)}-[Tle][Pro(4,4-Me2)][X4]G[Phg]-NMe2) | 1 to 100 nM

Now from value to compound:

Row | Ki | SMILES
23 | 1 to 100 nM | CC(C)(C)CC(C)(C)NC(=O)N[C@H](C(=O)N1CC2C([C@H]1C(=O)NC(CC1CCC1)C(=O)C(N)=O)C2(C)C)C1CCCCC1 (stereo partly shown)
24 | > 1000 nM | C=CCCC(NC(=O)[C@@H]1[C@H]2[C@@H](CN1C(=O)[C@@H](NC(=O)CC(C)(C)C)C1CCCCC1)C2(C)C)C(=O)C(=O)NCC=C (stereo partly shown)
25 | 101 to 1000 nM | C=CCC(NC(=O)[C@@H]1C2C(CN1C(=O)[C@@H](NC(=O)OC(C)(C)C)C(C)(C)C)C2(C)C)C(=O)C(=O)NCC(=O)NCC1CCCCC1 (stereo partly shown)
26 | 1 to 100 nM | CC(C)(C)C(NC(=O)NC1CCCCC1)C(=O)N1C[C@@H]2[C@H]([C@H]1C(=O)NC(CC1CCC1)C(=O)C(N)=O)C2(Cl)Cl (stereo partly shown)
27 | > 1000 nM | CCCC(NC(=O)C1C2C(CN1C(=O)C(NC(=O)OC(C)(C)C)C(C)(C)C)C2(C)C)C(=O)C(=O)NCCC(c1ccccc1)c1ccccc1 (stereo not shown)
28 | > 1000 nM | C=CCNC(=O)C(=O)C(CC(C)(C)C)NC(=O)[C@@H]1[C@@H]2[C@H](CN1C(=O)[C@@H](NC(=O)OC(C)(C)C)C(C)(C)C)C2(C)C (stereo partly shown)

Same assay, conditions: Table 6; HCV NS3/NS4A protease, 30° C., pH 6.5; read-out: Ki*

Row | SMILES | Ki
29 | CN(C)C(=O)[C@@H](NC(=O)CNC(=O)C(=O)[C@H](CC1CCC1)NC(=O)[C@@H]1[C@H]2CC(F)(F)C[C@H]2CN1C(=O)[C@@H](NC(=O)OC(C)(C)C)C1CCCCC1)c1ccccc1 | 1 to 100 nM
30 | CC(C)(C)NC(=O)N[C@H](C(=O)N1C[C@H]2[C@@H]([C@H]1C(=O)NC(CC1CCC1)C(=O)C(N)=O)C21CCCC1)C(C)(C)C (stereo partly shown) | 101 to 1000 nM
31 | CN(C)C(=O)[C@@H](NC(=O)CNC(=O)C(=O)C(CC1CC1)NC(=O)[C@@H]1[C@H]2CC(C)(C)C[C@H]2CN1C(=O)[C@@H](NC(=O)OC(C)(C)C)C(C)(C)C)c1ccccc1 (stereo partly shown) | 1 to 100 nM

The remaining lines, values ahead:

Row | Ki | SMILES
32 | 1 to 100 nM | CCCCC(NC(=O)[C@@H]1[C@@H]2[C@H](CN1C(=O)[C@@H](NC(=O)NC(C)(C)C)C1CCCCC1)C2(C)C)C(=O)C(=O)NCC(=O)OC(C)(C)c1ccccc1 (stereo partly shown)
33 | 1 to 100 nM | CNC(=O)C(=O)C(CC1CC1)NC(=O)[C@@H]1[C@@H]2[C@H](CN1C(=O)[C@@H](NC(=O)OC(C)(C)C(F)(F)F)C1Cc3ccccc3C1)C2(C)C (stereo partly shown)
34 | 1 to 100 nM | CCCC(NC(=O)[C@@H]1[C@@H]2[C@H](CN1C(=O)[C@@H](NC(=O)OC(C)(C)C)C1CCCCC1)C2(C)C)C(=O)C(=O)NCC(=O)N[C@@H](CC(=O)N(C)C)c1ccccc1 (stereo partly shown)
